This note sets out measurements from the RNAGym collection of RNA variant scans (doi:10.7554/elife.90254).

Read counts are not given, so values of variants with three or more changes are uncertain.

B1: LINE1-mini (parent)
chain: GGCAGAGCUCAACACAGCGUGGCAAAGUGGCUGUGGCUAGACUGCC

The variants in this series derive from B1. The series is described as follows: self-cleavage, relative activity (ratio to wild type); higher = more cleavage; in vitro, sequencing; the parent is a self-cleaving ribozyme.
In the case of GGCAGAGCUCAGCACAGCGUGGGAAAGUGGCUGUGACCAGACUCCC [A12G C23G G36A U38C G44C], the self-cleavage is 0.02.

With GGCAGAGCUCAAGACAGCGUGGCAAACUAGCUGUGGCUAGACUGCC [C13G G27C G29A], the self-cleavage came out at 0.17.

Consider GGCAGAGCUCAAGACAGCGUGGCAAAGUGGCUUUGGCUACACUGCC [C13G G33U G40C], for which the self-cleavage was 0.9.

For the variant CGCAGAGCUCAACACAGCGUGGCGAAGUGGCAGUGGCUAGAGAGCC [G1C A24G U32A C42G U43A], the self-cleavage stood at 0.06.

GGCAGAGCUCAACACAGCGUGGCCAAGUGGCUGUUACUAGACUGCC [A24C G35U G36A]: the self-cleavage came to 0.04.

As for GGCAGAGCUCAACACAGCGUGGCGAAGUGGCCGUGGCUAGACUGCA [A24G U32C C46A], the self-cleavage was 0.15.

With GGCAGAGCUCAGCCCAGCGAGGCAAAGUGGCUGUGGCUAGACUGCC [A12G A14C U20A], the self-cleavage amounted to 0.03.

UGCGGAGCUCAACACAGCGUGGCAAAGUGCCUGUGGCUAGACUGCA [G1U A4G G30C C46A]: the self-cleavage was 0.13.

For GGCAGAGCUCAACUCAGAUUGGCAAAGUGGCUGUGCUUAGACUGGC [A14U C18A G19U G36C C37U C45G], the self-cleavage came to 0.01.

Regarding GGGAGAGCUCAACACAGCGUGGCAAAGUGGCUCUGGCUUGACUGCG [C3G G33C A39U C46G], the self-cleavage is 0.04.

Consider GUCAGAACUCAACACAGCGUGGCAAAGUGGCUGUGGCUAGUCUGCC [G2U G7A A41U], for which the self-cleavage worked out at 0.09.

Regarding GGCAGGGCUCAACACAGCGUUGCAAAGUCGCUGUGGCUAGACUGCC [A6G G21U G29C], the self-cleavage is 0.07.

In the case of GGCAGAGCUAAACACAGCGUGGCAAAGUGGCUGUUGCAAGACUGCC [C10A G35U U38A], the self-cleavage was found to be 0.

Consider GGCAGAGCACAACACAGAGUGGUAAAGUGGCUGUCGGUAGACGGCC [U9A C18A C23U G35C C37G U43G], for which the self-cleavage came to 0.09.

Turning to GGCAGAGCUCAACACAGCGGGGCAAAGUGGCUGCGGCUAGACGGCG [U20G U34C U43G C46G], the self-cleavage was found to be 0.

As to GGCAGAGCUCAACACAGAGUGGCCUCGUGGCUGUGGCUAGACUGCC [C18A A24C A25U A26C], the self-cleavage amounted to 0.01.

Consider GGCAGAGCUGAACACCGCGUGGCAAAGUGUCUGUGGCUAGACUGCC [C10G A16C G30U], for which the self-cleavage was 0.03.

For the variant GGCAGAGCUCUAAACGGCGUGGCAAAGUGGCUGUGGCUAGAUAGUC [A11U C13A A16G C42U U43A C45U], the self-cleavage came to 0.01.

GGCAGAGCUCAACACAGAGUGUUAAAGUUGCUGUGGCUAGACUGCA [C18A G22U C23U G29U C46A]: the self-cleavage is 1.82.

As to GGCAGAACUCAACACAGCGUGGCAAACUGGCUGUGGCGAGACUGCC [G7A G27C U38G], the self-cleavage was 0.01.

Consider GGCAAAGCUCAACACUGCGUGGCAAAGUGGCUGUUGCUAGACUGCC [G5A A16U G35U], for which the self-cleavage is 0.09.

Consider GGUAGAGCUCAACACAGCUUGGCAAAGUGACUGUGGCUAGACUGCC [C3U G19U G30A], for which the self-cleavage came out at 0.04.

Turning to GGCAGAGCUCAACACAGCGUGGCAAAUUGCCUGUGUCUAGACUGCC [G27U G30C G36U], the self-cleavage was 0.05.

Turning to GGCAUAGUUCAACACAGCGUGGCUAAGAGGCUGCGGCUAUACUACC [G5U C8U A24U U28A U34C G40U G44A], the self-cleavage came out at 0.08.

Take GGCAGAUCUAAACACAGCGUGGCAAAGUGGAUGUGGUUAGACUGCC [G7U C10A C31A C37U]: the self-cleavage stood at 0.03.

For the variant GGCUGAGCUCAACACAGUGUGGCAAAGUGGCAGUGGCUAUACUGCC [A4U C18U U32A G40U], the self-cleavage worked out at 0.01.

GGCAGAGCUCAACACAGCGUGUCAAAAUUGCUGUGGCUAGACUGCC [G22U G27A G29U]: the self-cleavage amounted to 0.21.

GGCAGAGUUCAACACACCGUGGCAAAGUGGCUGUGGCUAGACUUCC [C8U G17C G44U]: the self-cleavage was determined as 0.

Turning to GGCAGAGCUCGACACAGCGUGGCAAUAUGGCUGUGGCUAGACUGCC [A11G A26U G27A], the self-cleavage turned out to be 0.01.

As to GGCAGAGCUCUACACAGCGUGGCAAAGUGGGUAUGGCUAGACCGCC [A11U C31G G33A U43C], the self-cleavage turned out to be 0.01.

In the case of GGUAGAGCUCAACACAGCGUGGCAAAGUGGCUGUGCCUAGACUGCU [C3U G36C C46U], the self-cleavage was 0.26.

On to GGCAGAUCUACACACAGCGUGGCAGAGUGGCUGUGGCUAGACUGCC [G7U C10A A11C A25G], for which the self-cleavage was 0.

For the variant GGCAGAGGUCAACACAGCGUGGCAAGGUUGCUGUGGCUAGACUGCC [C8G A26G G29U], the self-cleavage came to 0.56.

With GGCAGAGCUCCACACAGCCUGGCAAAGUGGCUUUGGCUAGACUGCC [A11C G19C G33U], the self-cleavage was 0.

For GGGAGAGUUUAACACGGCGUGGCAAAGUGGCUGUGGCUAGACUGCC [C3G C8U C10U A16G], the self-cleavage is 0.02.

For GGCAGAGCUCAACACAUAGUGGCAAAGUGGCUGUGGCUAGACCGCG [G17U C18A U43C C46G], the self-cleavage came out at 0.06.

With GGCGGAGCUCAACACAGCGUGGCAAAGUGGAUGUGGUUAGACUGCC [A4G C31A C37U], the self-cleavage amounted to 0.01.

As for GGCAGAGCUCAACACAGCGUGGCUAAUUGGCUCUGGGAAGACUGCC [A24U G27U G33C C37G U38A], the self-cleavage is 0.04.

With GGCACAGCUCAACACAGCCUGGCAAAGUGGCUGUGGCUAUACUACC [G5C G19C G40U G44A], the self-cleavage is 0.01.

GGCAGAGCUCAACACCGCGUGGCAAAGUGGGUUUGGCUAGACUGCC [A16C C31G G33U]: the self-cleavage was 0.01.

Take CGCAGCGCUAAACACAGCGUGGCAAGGUGGCUGUGUCUAGACUGCC [G1C A6C C10A A26G G36U]: the self-cleavage amounted to 0.02.

As to GGCAGAGCUCAACCCAGCGUGGCAAAGUGACUGCGGCUAGACUGCC [A14C G30A U34C], the self-cleavage was found to be 0.03.

Consider GGCAGAGCUCAAACCAGCGUGGCAAAGUUUCUGUGGCUAGAGUGCC [C13A A14C G29U G30U C42G], for which the self-cleavage is 0.03.

On to GGCAGAGCUCAACACAGCGUGGCAAAGGGGCAAUGGCUAGACUGCC [U28G U32A G33A], for which the self-cleavage turned out to be 0.02.

Consider GGCAGAGCUCAACAUAGAGUGGCAAAGUCGCUGUGGCAAGCCUGCC [C15U C18A G29C U38A A41C], for which the self-cleavage was 0.01.

As for ACCAGAGCUAAACACAGCGUGGCAAAGUGGUUGUGGCUAGACUGCC [G1A G2C C10A C31U], the self-cleavage amounted to 0.04.

Take AGCACAGCUCACCACAGCGUGGCAAAGUGGCUAUGACUAGACUGCC [G1A G5C A12C G33A G36A]: the self-cleavage was 0.05.

As to GGCAUAGCUCAGCACAUCGUGGCAAAGUGGCUGUGGCUAGACUGCC [G5U A12G G17U], the self-cleavage is 0.03.

For the variant GGCAGAGCUCUACACAGCCUGGCAAACUGGCUGUGGCUAGACUGCC [A11U G19C G27C], the self-cleavage is 0.01.

On to GGCGGAGCUCUACACAGCGUAGCAAAGUGGCUGUGGCUAGACUGCC [A4G A11U G21A], for which the self-cleavage turned out to be 0.6.

Turning to GGCAGAUCUCAACACAGCUUUGCAAAGUGGCUGUGGCUAGACUGCC [G7U G19U G21U], the self-cleavage worked out at 0.02.

Consider GGCAGAGCUCAACACGGCGAGGCAAAGUGGCUGUGGCUAUACUGCC [A16G U20A G40U], for which the self-cleavage was 0.04.

Consider GGCAGAGAUUAACACAGCGUGGCAAAGUGGCUGUGGUUAAACUGCC [C8A C10U C37U G40A], for which the self-cleavage came to 0.02.

Regarding GGCAGAGCUCAACACGGCGUGACAAAGUGGCCGUGGCUUGACUGCU [A16G G22A U32C A39U C46U], the self-cleavage was 0.24.

UGCAGAGCUCAACACAGCUUGGCAAAGUGGCUGUAGCUAGACUGCC [G1U G19U G35A]: the self-cleavage stood at 0.19.

Take GGCAGAGCUCUACACAGCGUGGCAAAGUGGCUGUGGCUAGGCUUCC [A11U A41G G44U]: the self-cleavage is 0.
